According to patent US20260216325A1, “NOVEL IMIDAZOPYRIMIDINE COMPOUND AND USES THEREOF” (The Children's Medical Center Corporation, priority 2023, published 2026):

Experiments:
[1] = format: in vivo, C57BL/6J mice; conditions: mouse, single intravenous administration, up to 8 hours post-administration; relative to PVP-037.1
[2] = Body weight after vaccination; format: in vivo, C57BL/6 mice; conditions: 6-8 weeks old mice, rHA admixed with 100 nmol IM, up to 3 days post vaccination
C57BL/6 adult mice = format: in vivo; conditions: 100 nmol/mouse IM with rHA, 28 days post-immunization
Solubility = format: physicochemical; conditions: over PVP-037.1
Balb/c adult mice = assay: Spike immunization in Balb/c mice, Spike-specific IgG and IgG1 by ELISA; format: in vivo, mouse; conditions: 100 nmol IM with Spike 1 μg, Days 0, 14 and 28

## Cc1cnc2nc(-c3ccc(C)c(NC(=O)c4ccc(CN)cc4C(F)(F)F)c3)cn2c1 [Compound (1), 4-(Aminomethyl)-N-(2-methyl-5-(6-methylimidazo[1,2-a]pyrimidin-2-yl)phenyl)-2-(trifluoromethyl) benzamide]
[1]
  clearance from blood plasma: enhanced clearance
[2]
  body weight change: maintained normal weight gains
C57BL/6 adult mice; prime only, vs rHA alone
  anti-rHA IgG titers: increased
C57BL/6 adult mice; single immunization
  antigen-specific (rHA) IgG1 production: significantly enhance
  antigen-specific (rHA) IgG2c production: significantly enhance
Solubility
  solubility: improved solubility
Balb/c adult mice
  adjuvanticity (Spike-specific IgG and IgG1): robust adjuvanticity
